Data from article PMC7819943, “Rice protein-binding microarrays: a tool to detect cis-acting elements near promoter regions in rice”.
Some of the results follow.

Biological target: T1, OsWOX13 (Oryza sativa, UniProt Q5QMM3 1-267)
T1 sequence: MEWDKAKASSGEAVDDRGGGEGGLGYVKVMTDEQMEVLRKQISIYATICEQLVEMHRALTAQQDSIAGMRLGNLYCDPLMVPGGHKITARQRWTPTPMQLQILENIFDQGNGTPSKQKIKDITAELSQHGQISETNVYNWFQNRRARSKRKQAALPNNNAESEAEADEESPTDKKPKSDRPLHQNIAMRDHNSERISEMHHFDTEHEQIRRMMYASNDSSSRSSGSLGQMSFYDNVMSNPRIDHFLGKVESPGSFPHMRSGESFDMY
Test: protein-binding microarray (RPBM); PBS, 2% BSA, 51.3 ng/ul salmon testes DNA, 50 uM zinc acetate, 200 nM TF, 25 C, 1 h; high values mean tight binding
Settings: protein: recombinant; tags: N-terminal polyhistidine and DsRed monomer fusion (pET32a); label: CyDye5-dUTP incorporated in the synthesized complementary strand; 3' TTTTT single-stranded linker to array surface; dsDNA, one strand shown
Procedure, shortened: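 A custom Agilent array was converted to double-stranded form by primer extension with Cy5-dUTP and blocked with 2% BSA. Protein at 200 nM in PBS with 2% BSA, salmon testes DNA and 50 µM zinc acetate was applied for 1 h at 25 °C, followed by washing. The proteins were polyhistidine–DsRed N-terminal fusions of transcription factors, expressed in E. coli BL21-CodonPlus and Ni–NTA-purified. The binding signal is per-feature fluorescence intensity (arbitrary units) from an Axon 4000B scanner.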

Compared with “TGTTGCTCCCTGATTGGGTCGAGCCGTGCGCATCTGCCGTCGGAGTCACCTAGTGCAG”, “ACCAATTAATTAACCACGCTAGCCCAGAGTGATCGATAGCCGGAGTCACCTAGTGCAG” is higher in binding signal: 11800 fluorescence intensity (a.u.) for the first, 33600 fluorescence intensity (a.u.) for the second.

Going from “AACACATGATTAATTAATTATAAACTAAAGTAACTTTAAACGGAGTCACCTAGTGCAG” to “CCATCTGTGATACTTGTCTGATTAGCTCGATTTTATGAACCGGAGTCACCTAGTGCAG”, the binding signal falls from 41500 fluorescence intensity (a.u.) to 7310 fluorescence intensity (a.u.).

Compared with “TAATTAATTGGGCCAAAATCCCTACTACATGCACCATTACCGGAGTCACCTAGTGCAG”, “AGTCGCGATCCAATCAAGTAAATGCTGCAATTTCTCGTTGCGGAGTCACCTAGTGCAG” is lower in binding signal: 18500 fluorescence intensity (a.u.) for the first, 12800 fluorescence intensity (a.u.) for the second.

Going from “ATTTGTTAATTTTGTTATAATTTGTAGAAGTTAAATTTGACGGAGTCACCTAGTGCAG” to “CGGATGATTTAGTTTCATCACAACAACCTAACCAGTTGATCGGAGTCACCTAGTGCAG”, the binding signal rises from 13700 fluorescence intensity (a.u.) to 15000 fluorescence intensity (a.u.).

First: TCCAATCTAATCCAATTTATTGCTTGTGTTCTGCGTACTGCGGAGTCACCTAGTGCAG
Second: AGTTTACAGAAAACATGATTTTCTCTAATGATGTTACAGACGGAGTCACCTAGTGCAG
The binding signal of the first is higher: 9760 fluorescence intensity (a.u.) for the first, 3740 fluorescence intensity (a.u.) for the second.

Going from “TTGATCATGATGATATTTAATTTGTTTAGATCACACACTACGGAGTCACCTAGTGCAG” to “CTTGATTACCGTCATTAGTCAAAATCGCAGTTCACATCATCGGAGTCACCTAGTGCAG”, the binding signal rises from 10200 fluorescence intensity (a.u.) to 37400 fluorescence intensity (a.u.).

Compared with “GTGATTAACACATTCCACTTCCGAGTTCTTACAATGGTTCCGGAGTCACCTAGTGCAG”, “GTCATATAATTGCAACAAATATACTCCTAGCTCGCTCTCTCGGAGTCACCTAGTGCAG” is higher in binding signal: 6780 fluorescence intensity (a.u.) for the first, 13000 fluorescence intensity (a.u.) for the second.

First: CCTTGCGGTTCAATCAACGTTCCAAGTTCAACGATCATGTCGGAGTCACCTAGTGCAG
Second: CGTTGTTTTCATGATTGTCACCATATGTGGTCTGCATTATCGGAGTCACCTAGTGCAG
The binding signal of the first is higher: 9270 fluorescence intensity (a.u.) for the first, 6200 fluorescence intensity (a.u.) for the second.

First: ATGATTTGTGGTAAGACAGTAGCAAATCAAAGCATCGGCTCGGAGTCACCTAGTGCAG
Second: ACGATGATTGCGCAGCGTACAAGTCAAGGCCAAGTCGTCGCGGAGTCACCTAGTGCAG
The binding signal of the first is lower: 10600 fluorescence intensity (a.u.) for the first, 37000 fluorescence intensity (a.u.) for the second.

Going from “TATAATAGATAAATAAATGCATGTTTACTTTTATTATAGTCGGAGTCACCTAGTGCAG” to “GTCACTGATAGGTATCATCCGTGACGGGCTTAGGTTTTATCGGAGTCACCTAGTGCAG”, the binding signal falls from 17300 fluorescence intensity (a.u.) to 6180 fluorescence intensity (a.u.).

Compared with “GACCATGATTAGCCATAAGTGCTACAGTAACCCACGTGTGCGGAGTCACCTAGTGCAG”, “GTCTAGATTATTAGTACGAATATATCACATCCGGTTTTAGCGGAGTCACCTAGTGCAG” is lower in binding signal: 32200 fluorescence intensity (a.u.) for the first, 7510 fluorescence intensity (a.u.) for the second.

Going from “CTGACTGGCTCTGATTAATTAATTGATGATCGATCGAGCGCGGAGTCACCTAGTGCAG” to “AAATGGGAGAATGTTATGATTGGTTGAGAAGTGGAGGTAGCGGAGTCACCTAGTGCAG”, the binding signal falls from 49800 fluorescence intensity (a.u.) to 3540 fluorescence intensity (a.u.).

First: CTCAATTAATTGTGCTCATTGCATTATTCTTGTTAGACAGCGGAGTCACCTAGTGCAG
Second: CACCCCGTTGATTATGAAATTTTGTGTCAATGCTCTATGACGGAGTCACCTAGTGCAG
The binding signal of the first is higher: 35600 fluorescence intensity (a.u.) for the first, 28400 fluorescence intensity (a.u.) for the second.

Going from “ACTGAATGATGTCGACACCTGAATGTTTAACAATTGCTAGCGGAGTCACCTAGTGCAG” to “TCAAATTTCGATATGATAGATTAAATGTGTTGTTGCCAAACGGAGTCACCTAGTGCAG”, the binding signal rises from 8650 fluorescence intensity (a.u.) to 9350 fluorescence intensity (a.u.).

Going from “CTGATTACACGAAATACGCATACATGCACACCATGCTCACCGGAGTCACCTAGTGCAG” to “TTAATTGCATGAAAATATGTTAGAGCATCTCCAAGAGGTACGGAGTCACCTAGTGCAG”, the binding signal rises from 7300 fluorescence intensity (a.u.) to 7380 fluorescence intensity (a.u.).

First: CTCCCAATTAATATCAATCCAAATACATTACTTACATTGTCGGAGTCACCTAGTGCAG
Second: ATTTAAATAAAACTAATTGCACAGTTAGAGGGGAAATCGCCGGAGTCACCTAGTGCAG
The binding signal of the first is higher: 36100 fluorescence intensity (a.u.) for the first, 19100 fluorescence intensity (a.u.) for the second.

Compared with “CTTGATGATTAATCAATTCAATCTTGGCTGTCATGAGAGGCGGAGTCACCTAGTGCAG”, “CAAGAAATTATTAAGTAATTTTCATACTTATCATGTTCACCGGAGTCACCTAGTGCAG” is lower in binding signal: 62000 fluorescence intensity (a.u.) for the first, 10400 fluorescence intensity (a.u.) for the second.

Going from “AAAGATTTGTCTCGCAAATTGGTCGCAATCTATGCAATTACGGAGTCACCTAGTGCAG” to “GAGAATCAATCATGCGGTTTCTGCACTAGCATGTTACTCCCGGAGTCACCTAGTGCAG”, the binding signal rises from 5100 fluorescence intensity (a.u.) to 19000 fluorescence intensity (a.u.).

Going from “ATGTAATGATTGTTTCACCTTAATAGGGAAATTGTTATCCCGGAGTCACCTAGTGCAG” to “AATACTTATTAATAATTAACATGTGTTAATTCATTGCTTCCGGAGTCACCTAGTGCAG”, the binding signal falls from 47400 fluorescence intensity (a.u.) to 13400 fluorescence intensity (a.u.).

First: CATAAATTTTGCATAAACAAATCATATTTACCTTCTAAAACGGAGTCACCTAGTGCAG
Second: TTGGGTGGCAATTATTAATCAGTCATGTCATTCAACTAGACGGAGTCACCTAGTGCAG
The binding signal of the first is lower: 11000 fluorescence intensity (a.u.) for the first, 11700 fluorescence intensity (a.u.) for the second.

Compared with “TATAAATAGGCTATTAGATTAGCTATAGATGGTTTAGAGCCGGAGTCACCTAGTGCAG”, “AGTAATTAAATTCATTCAACTCTCGTTCTCCCATATATTGCGGAGTCACCTAGTGCAG” is higher in binding signal: 23000 fluorescence intensity (a.u.) for the first, 30800 fluorescence intensity (a.u.) for the second.
